{"source": "PubChem BioAssay AID602310", "about": "(National Center for Advancing Translational Sciences (NCATS), 2012)", "note": "Hit rate of the full screen: of about 410,000 compounds, about 310 (0.076%) were called active. Inconclusive means that the source gave no clear call. Such entries were picked first, then a sample of the others. Calls follow the shape of the dose curve; as a rule, active = well fitted curve in the direction sought with a large enough effect; inconclusive = small, poorly fitted or top-dose-only effect; inactive = flat fitted curve, though single readings scatter. Where the call is inconclusive, the potency comes from a doubtful curve fit. Potency is read from the fitted curve at half-maximal effect; tags tell the direction and shape of the fitted curve.", "data": [{"target": "DNA dC->dU-editing enzyme APOBEC-3G (Homo sapiens) (UniProt Q9HC16)", "sequence (Q9HC16 whole entry, looked up)": "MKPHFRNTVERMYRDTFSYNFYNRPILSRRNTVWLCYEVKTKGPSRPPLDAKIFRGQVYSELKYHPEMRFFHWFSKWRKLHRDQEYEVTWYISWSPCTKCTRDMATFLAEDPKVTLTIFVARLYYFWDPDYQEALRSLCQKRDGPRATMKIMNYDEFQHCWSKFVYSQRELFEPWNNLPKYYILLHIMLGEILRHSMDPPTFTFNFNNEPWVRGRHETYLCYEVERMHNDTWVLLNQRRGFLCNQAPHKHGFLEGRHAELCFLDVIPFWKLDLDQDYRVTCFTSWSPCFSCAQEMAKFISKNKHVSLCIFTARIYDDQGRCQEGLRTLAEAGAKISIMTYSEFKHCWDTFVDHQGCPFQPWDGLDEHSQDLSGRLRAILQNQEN", "test": "qHTS for Inhibitors of Vif-A3G Interactions: qHTS; also: nearly all actives have a fitted effect of over 60% in size", "conditions": "HeLa A3G-eYFP + Vif (tagged APOBEC3G with the HIV-1 protein that degrades it), YFP fluorescence, overnight; series mostly up to 46.1 µM", "procedure,_shortened": "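Read-out is eYFP fluorescence (Ex 488/Em 500-530) from Vif-expressing HeLa A3G-eYFP cells; more signal means A3G escaped Vif-mediated degradation. Cells plated overnight, compound pinned in, incubated overnight at 37 deg C.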", "values": [{"smiles": "COc1ccc(OC)c(NS(=O)(=O)c2ccc(Cl)s2)c1", "Potency": "inconclusive: 12.6 µM [inhibitor, partial curve, poor fit]"}, {"smiles": "Cc1ccc(/C=N/NC(=O)c2cc(-c3ccc(C)o3)[nH]n2)cc1", "Potency": "inconclusive: 11.2 µM [inhibitor, partial curve, poor fit]"}, {"smiles": "CCCCCNC1=CC(=O)CC(c2ccccc2)C1", "note": "(stereo not given)", "Potency": "inconclusive: 12.6 µM [inhibitor, partial curve]"}, {"smiles": "COc1cc(S(=O)(=O)n2c(C)nc3ccccc32)ccc1F", "Potency": "inconclusive: 35.5 µM [inhibitor, single point]"}, {"smiles": "COc1cc(/C=C2\\SC(=Nc3ccccc3OC)NC2=O)ccc1O", "Potency": "inconclusive: 5.62 µM [inhibitor, full curve]"}, {"smiles": "COc1ccc(C2c3ccc(O)cc3Oc3ncn4nc(-c5ccncc5)nc4c32)cc1OC", "note": "(stereo not given)", "Potency": "inactive"}, {"smiles": "CCCn1c(NC(=O)c2ccc([N+](=O)[O-])o2)nc2ccccc21", "Potency": "inconclusive: 15.8 µM [inhibitor, single point]"}, {"smiles": "NC(=O)COc1ccc(-c2noc(COc3ccc(Cl)cc3)n2)cc1", "Potency": "inactive"}, {"smiles": "NS(=O)(=O)c1ccc(NCc2ccccc2OCc2ccc(F)cc2)cc1", "Potency": "inactive"}, {"smiles": "Cc1cc2ccccn2c1C(=O)c1ccccc1F", "Potency": "inconclusive: 11.2 µM [inhibitor, partial curve]"}, {"smiles": "CCN1C(=O)/C(=C/c2ccc(N3CCCC3)cc2)NC1=S", "Potency": "active: 8.91 µM"}, {"smiles": "CC(C)c1ccc(/C=N/NC(=O)c2ccccc2Cl)cc1", "Potency": "inconclusive: 2 µM [inhibitor, full curve, poor fit]"}, {"smiles": "CCC(=O)N/N=C(\\C)CC(=O)Nc1ccc(F)cc1", "Potency": "inactive"}, {"smiles": "COc1cc(C(=O)NNC(=S)Nc2ccc(S(N)(=O)=O)cc2)cc(OC)c1OC", "Potency": "inconclusive: 35.5 µM [inhibitor, single point]"}, {"smiles": "Nc1n[nH]c(N)c1N=Nc1ccc(Cl)cc1Cl", "Potency": "inconclusive: 22.4 µM [inhibitor, single point]"}, {"smiles": "O=C(NCCc1c[nH]c2ccccc12)C(=O)c1c[nH]c2ccccc12", "Potency": "inconclusive: 20 µM [inhibitor, single point]"}, {"smiles": "CC(=O)c1cccc(S(=O)(=O)N2CCN(c3nc(-c4cccs4)nc4ccccc34)CC2)c1", "Potency": "inactive"}, {"smiles": "Cc1ccc(OC(C)C(=O)Nc2ccc(Cl)cn2)c([N+](=O)[O-])n1", "note": "(stereo not given)", "Potency": "inactive"}, {"smiles": "C#CCOc1c(Cl)cc(/C=N/NC(N)=S)cc1OCC", "Potency": "inactive"}, {"smiles": "CN(C)c1ccc(/C=C2\\C(Cl)=Cc3ccccc32)cc1", "Potency": "inactive"}, {"smiles": "COc1ccc(-c2nc(Cn3c(SCc4ccc(C)cc4)nc4cccnc43)c(C)o2)cc1OC", "Potency": "inconclusive: 1.12 µM [inhibitor, full curve, poor fit]"}, {"smiles": "CCCS(=O)(=O)c1ncc(Cl)c(C(=O)Nc2scc(-c3ccccc3)c2C(=O)OCC)n1", "Potency": "inconclusive: 25.1 µM [inhibitor, single point]"}, {"smiles": "Cn1c(Cn2cnc(Cl)c2Cl)nc2ccccc21", "Potency": "inactive"}, {"smiles": "Cc1cnc2ccccc2c1C", "Potency": "inactive"}, {"smiles": "CCn1c(O)c(/C=N/N=C/c2ccc(OC)cc2)c2cc(C3=NNC(=O)CC3)ccc21", "Potency": "inconclusive: 5.62 µM [inhibitor, single point]"}, {"smiles": "O=C(NC1CC1)c1cccc2c1C(=O)c1ccc(N3CCC(Cc4ccccc4)CC3)cc1S2(=O)=O", "Potency": "inconclusive: 22.4 µM [inhibitor, single point]"}, {"smiles": "O=C1CC(c2ccc(F)cc2)c2cc3c(cc2N1)CCC3", "note": "(stereo not given)", "Potency": "inconclusive: 35.5 µM [inhibitor, single point]"}, {"smiles": "CC(C)CN(C(=O)COC(=O)Cc1ccc(Cl)cc1)c1c(N)n(Cc2ccccc2)c(=O)[nH]c1=O", "Potency": "inconclusive: 31.6 µM [inhibitor, single point]"}, {"smiles": "CN1CCCC1c1cccnc1", "note": "(stereo not given)", "Potency": "inactive"}, {"smiles": "Cc1ccc(NC(=O)CCl)cc1S(=O)(=O)N1CCCCCC1", "Potency": "inconclusive: 15.8 µM [inhibitor, single point]"}, {"smiles": "COc1cccc(-n2c(SCC(=O)NC3CCCCC3)nc3n[nH]c(C)c3c2=N)c1", "Potency": "inconclusive: 7.94 µM [inhibitor, partial curve]"}, {"smiles": "Cc1[nH]n(-c2ccccc2)c(=O)c1/C=N/O", "Potency": "inconclusive: 25.1 µM [inhibitor, single point]"}, {"smiles": "O=C(O)c1ccc(Cl)c(S(=O)(=O)N(Cc2ccccc2)c2ccc(Cl)cc2)c1", "Potency": "inconclusive: 6.31 µM [inhibitor, partial curve, poor fit]"}, {"smiles": "O=C1OC(c2ccccc2)(c2cc(Br)c(O)c(Br)c2)c2ccccc21", "note": "(stereo not given)", "Potency": "inactive"}, {"smiles": "CN(CCC#N)c1ccc(/C=C(\\C#N)c2ccccn2)cc1", "Potency": "inactive"}, {"smiles": "Nc1ncnc(Nc2cccc(F)c2)n1", "Potency": "inconclusive: 6.31 µM [inhibitor, single point]"}, {"smiles": "N#Cc1c(N)nc(SCC(=O)C23CC4CC(CC(C4)C2)C3)c(C#N)c1-c1ccc(Cl)cc1", "Potency": "inactive"}, {"smiles": "Nc1c(C(=O)NC2CC2)sc2nc3c(c(-c4ccco4)c12)CC/C3=C/c1ccco1", "Potency": "inconclusive: 31.6 µM [inhibitor, partial curve, poor fit]"}, {"smiles": "CCCCC(=O)Nc1ncc([N+](=O)[O-])s1", "Potency": "inactive"}, {"smiles": "CCOC(=O)/C(=C\\c1ccccc1)C(=O)CCN1CCOCC1", "Potency": "inactive"}, {"smiles": "COc1ccc(CC(=O)NCc2ccc(-n3cccc3)cc2)cc1OC", "Potency": "inconclusive: 2.51 µM [inhibitor, full curve, poor fit]"}, {"smiles": "Cc1ccc(S(=O)(=O)N2[C@@H](c3ccc(C(C)(C)C)cc3)C(C(=O)O)=CC[C@H]2c2ccc(Cl)c(Cl)c2)cc1", "Potency": "inactive"}, {"smiles": "CCC(CC)c1nn2c(=O)cc(COc3ccc(NC(=O)c4ccc(Cl)cc4)cc3)nc2s1", "Potency": "inactive"}, {"smiles": "COc1ccc(/C=C2\\C(=O)OCc3cc(OC)c(OC)cc32)cc1OC", "Potency": "inconclusive: 31.6 µM [inhibitor, partial curve, poor fit]"}, {"smiles": "O=C(COC(=O)c1ccc(NS(=O)(=O)c2cccs2)cc1)NCc1ccco1", "Potency": "inconclusive: 8.91 µM [inhibitor, partial curve, poor fit]"}, {"smiles": "Cc1[nH]nc2c1C(c1cc(Br)cs1)C(C#N)=C(N)O2", "note": "(stereo not given)", "Potency": "inconclusive: 11.2 µM [inhibitor, partial curve]"}, {"smiles": "Cc1ccc2oc3c(SCc4nc5ccccc5[nH]4)nc(C)nc3c2c1", "Potency": "inconclusive: 15.8 µM [inhibitor, single point]"}, {"smiles": "O=[N+]([O-])c1ccc2nc(CO)[nH]c2c1", "Potency": "inactive"}, {"smiles": "Cc1cc(C(=O)NCCc2ccc(Cl)cc2)no1", "Potency": "inactive"}, {"smiles": "CC(=O)NCc1ccc(-c2csc(NC(=O)CCc3nc4ccccc4c(=O)[nH]3)n2)s1", "Potency": "inconclusive: 22.4 µM [inhibitor, single point]"}, {"smiles": "C[C@H]1CN([C@@H](C)CO)C(=O)Cc2cc(NC(=O)Nc3ccccc3)ccc2O[C@H]1CN(C)Cc1ccccc1", "Potency": "inconclusive: 11.2 µM [inhibitor, single point]"}, {"smiles": "C=CCNc1nc2cc(-c3ccccc3C)sc2c(=O)n1C", "Potency": "inconclusive: 5.01 µM [inhibitor, full curve]"}, {"smiles": "CC(C)c1cc(C(=O)N/N=C/C(Br)=C/c2ccccc2)n[nH]1", "Potency": "inconclusive: 2.51 µM [inhibitor, full curve, poor fit]"}, {"smiles": "CC1C(=O)N(Cc2cn(CC3CCCCC3)nn2)CCS(=O)(=O)N1Cc1ccc(-c2ccncc2)cc1", "note": "(stereo not given)", "Potency": "inconclusive: 35.5 µM [inhibitor, single point]"}, {"smiles": "Cc1ccc(-c2cc(C(=O)N3CCN(c4ccc(F)cc4)CC3)c3ccccc3n2)o1", "Potency": "inactive"}, {"smiles": "Cc1cc2nc3c(=O)n(CCc4ccccc4)c(=O)[nH]c3nc2cc1N", "Potency": "inconclusive: 3.98 µM [inhibitor, partial curve, poor fit]"}, {"smiles": "CCCC[n+]1c(/C=C/c2c(OC)cc(OC)cc2OC)ccc2ccccc21", "Potency": "inconclusive: 3.16 µM [inhibitor, partial curve, poor fit]"}, {"smiles": "Cc1ccc(C)c2[nH]c(=O)c(C(c3nnnn3C(C)(C)C)N3CC=C(c4ccc(F)cc4)CC3)cc12", "note": "(stereo not given)", "Potency": "inconclusive: 28.2 µM [inhibitor, single point]"}, {"smiles": "COc1cc(NC(=O)c2cc3c(=O)oc4ccc(C)cc4c3s2)cc(OC)c1OC", "Potency": "inactive"}, {"smiles": "COc1cc(/C=C2\\SC(=Nc3ccc(O)cc3)NC2=O)cc(OC)c1OC", "Potency": "inconclusive: 1.78 µM [inhibitor, full curve]"}, {"smiles": "Cc1ccc(C(=O)c2c3ccc([N+](=O)[O-])cc3[n+]([O-])n2CCCC(N)=O)cc1", "Potency": "inconclusive: 20 µM [inhibitor, single point]"}, {"smiles": "Cc1cc2ccccc2n1-c1ccc(C(=O)N2CCCCC2)s1", "Potency": "inactive"}, {"smiles": "O=C(CCl)Nc1cccc(CP(=O)(c2ccccc2)c2ccccc2)c1", "Potency": "inconclusive: 11.2 µM [inhibitor, partial curve, poor fit]"}, {"smiles": "COc1ccc(N/C(N)=N/c2nc(CSc3nnc(C)s3)cc(=O)[nH]2)cc1", "Potency": "inconclusive: 4.47 µM [inhibitor, full curve, poor fit]"}, {"smiles": "CC(=O)Cc1nsc(NC(=O)c2ccc(-c3ccccc3Cl)o2)n1", "Potency": "inconclusive: 11.2 µM [inhibitor, partial curve, poor fit]"}, {"smiles": "COc1ccc(CN(C)C2c3ccccc3-c3ccccc32)cc1", "Potency": "inconclusive: 10 µM [inhibitor, partial curve]"}, {"smiles": "COc1ccc(C(=O)O/N=C(\\N)Cc2ccc(Cl)cc2)cc1OC", "Potency": "inactive"}, {"smiles": "CCCC(=O)OC1=CN(Cc2ccccc2)S(=O)(=O)c2ccccc21", "Potency": "inactive"}, {"smiles": "CNC(=O)c1ccc2c(c1)N=C(C)c1cc(C)ccc1S2", "Potency": "inconclusive: 3.16 µM [inhibitor, full curve]"}, {"smiles": "O=S(=O)(Nc1cccc2cccnc12)C1CC1", "Potency": "inconclusive: 35.5 µM [inhibitor, single point]"}]}]}
